The campaign covered roughly 340,000 compounds. About 12,000 (3.5%) were called active. The shares of active, inactive and inconclusive entries below differ from those in the screen. Calls come from the whole dose curve; as a rule, active = well fitted inhibition curve with a large enough effect; inconclusive = small, poorly fitted or top-dose-only effect, or another doubt; inactive = no such curve, though single readings can be large or run the other way. No potency is given beside an inconclusive call; the fits are too rough.
Assay: qHTS Assay for Inhibitors of Hepatitis C Virus (HCV)
Settings: Huh7.5.1 HCVcc-Cre (HCVcc is cell-culture hepatitis C virus) infection, luciferase reporter, 44 h; activity change, negative = inhibition: at 41.8 µM (top of the series) unless noted
How it was run: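 1,000 cells/well; 4 h culture; + compound; + HCVcc-Cre (~0.5 moi); 44 h; luciferase substrate, RT 15 min; read 15 sec.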
% is set by controls: 0 for no effect and ±100 for the full control effect; potency is the fitted concentration of half-maximal effect; tags give direction and shape of the fitted curve.

Structure (SMILES)	Potency	activity change, negative = inhibition
CN(CCOc1ccc(Br)cc1)CC(O)COc1ccc(C#N)cc1 (stereo not given)	inconclusive [inhibitor, single point]	
CCc1cc(/C(Cc2csc(C)n2)=N/O)c(O)cc1O	inconclusive [inhibitor, full curve, poor fit]	
O=C(Nc1nnc(C2CC2)s1)C1Cc2ccccc2CN1S(=O)(=O)c1ccccc1F (stereo not given)	inconclusive [inhibitor, single point]	
Cc1nc2ccccn2c1C(=O)NCc1ccc2c(c1)OCO2	inconclusive [inhibitor, single point]	
CCC(C)[C@H]1CNCCN1CCc1cc(C(F)(F)F)cc(C(F)(F)F)c1 (stereo not given in full)		inactive: 6.35%
O=C(NCC1CCCO1)C(=O)c1c[nH]c2ccccc12 (stereo not given)		inactive: 24.2%
COCCNC(=S)N1CCN(c2cccc(C(F)(F)F)c2)CC1		inactive: -0.274%
COc1ccc2nnc(-c3ccc(C(F)(F)F)cc3)n2n1	inconclusive [inhibitor, single point]	
COc1ccccc1NCC(=O)NNCC(=O)Nc1ccc(F)c(Cl)c1		inactive: 7.16%
COc1ccc(-n2c(C)cc(-c3csc(NC(=O)c4ccc(S(=O)(=O)N(C)C)cc4)n3)c2C)cc1	inconclusive [inhibitor, full curve]	
CN(C)CCN(CC1CCCN(Cc2ccccc2F)C1)C(=O)Cc1ccc(F)c(F)c1 (stereo not given)	inconclusive [inhibitor, single point]	
C=CC(C)(C)c1[nH]cnc1/C=C1\NC(=O)C(C(C)C)NC1=O (stereo not given)	inconclusive [inhibitor, single point]	
C=CCc1cccc(/C=N/NC(=O)CCC(=O)Nc2ccc(F)cc2)c1O	inconclusive [inhibitor, single point]	
CCOC(=O)COc1ccc2c(C#N)c3ccccn3c2c1		inactive: -18.5%
Cc1nn(C)cc1/C=N/NC(=S)Nc1ccccc1	inconclusive [inhibitor, partial curve]	
CC1CCN(C2=C(NS(=O)(=O)c3ccc(Br)cc3)C(=O)c3ccccc3C2=O)CC1		inactive: 4.75%
CCOC(=O)NNc1ccc2nonc2c1[N+](=O)[O-]	inconclusive [inhibitor, single point]	
CCN1CCN(c2cc(C)c3cc(NC(=O)c4ccc(C)c(C)c4)ccc3n2)CC1	inconclusive [inhibitor, partial curve, poor fit]	
CCOc1cc(-c2noc(CCCC(N)=O)n2)cc(Br)c1OC	inconclusive [inhibitor, single point]	
O=C(NCCCN1CCC(Cc2ccccc2)CC1)C1CCN(S(=O)(=O)N2CCC3(CC2)OCCO3)CC1		inactive: -27.1%
Oc1c(Br)cccc1/C=N/Nc1c(F)c(F)c(F)c(F)c1F	inconclusive [inhibitor, partial curve, poor fit]	
CC(Oc1ccc(Cl)cc1Cl)C(=O)NNC(=O)c1cccnc1 (stereo not given)		inactive: 14%
CCN(CCCCN1C(=O)c2ccccc2C1=O)c1ccc2c(c1)C(=O)N(C)C2=O	inconclusive [inhibitor, partial curve, poor fit]	
O=C(Nc1ccc(Cl)cc1)Nc1nnc(-c2ccncc2)s1	inconclusive [inhibitor, full curve, poor fit]	

Structure (SMILES)	Potency	activity change, negative = inhibition
COc1ccc(OCc2nc(N)nc(Nc3ccc(C)cc3)n2)cc1		inactive: -8.06%
COC(=O)c1cc(NC(=O)c2ccc([N+](=O)[O-])cc2)c(=O)oc1C		inactive: -24.2%
O=C(N/N=C\c1cn(-c2ccccc2)nc1-c1ccccc1)c1ccc(Br)o1	active: 3.98 µM	
O=C(NC1CCCN(Cc2ccc(Cl)cc2)C1)c1cnc2ccccn2c1=O (stereo not given)	inconclusive [inhibitor, partial curve]	
COc1ccc(S(=O)(=O)N2CCCCCC2)cc1NC(=O)Cc1ccccc1F	inconclusive [inhibitor, single point]	
CCOP(=O)(OCC)c1nc(/C=C/c2ccccc2)oc1NCc1ccc(OC)cc1	inconclusive [inhibitor, partial curve]	
CCOC(=O)c1cnc(-n2nc(C)cc2C)nc1NNc1nc(-c2ccccc2)cc(-c2ccccc2)n1	inconclusive [inhibitor, full curve]	
OCCOCCn1c(C2CCCN2c2nc(-c3ccc(F)cc3)cs2)nc2cc(C(F)(F)F)ccc21 (stereo not given)	inconclusive [inhibitor, single point]	
c1ccc(CN2CCN(c3nc4ccccc4c4ccccc34)CC2)cc1	inconclusive [inhibitor, single point]	
O=[N+]([O-])c1ccc(S(=O)(=O)c2cccc(C(F)(F)F)c2)nc1	inconclusive [inhibitor, single point]	
CN(CC(=O)Nc1cccc(F)c1)CC(=O)Nc1ccccc1Oc1ccccc1		inactive: -29.5%
COC(=O)C1=C(c2ccc(C(C)=O)cc2)C[C@@H]2CC[C@H]1N2C(=O)NCCCOC(C)C	inconclusive [inhibitor, single point]	
CCC1(c2ccccc2)NC(=O)N(CC(=O)N2CC(=O)Nc3ccccc32)C1=O (stereo not given)		inactive: 32.8%
CC(C)(C)c1ccc(C(=O)Nc2ccc(C=C(C#N)C#N)cc2)cc1	inconclusive [inhibitor, single point]	
Cc1ccc(NC(=O)CN2C(=O)S/C(=C/c3ccncc3)C2=O)cc1	inconclusive [inhibitor, single point]	
O=C(O)c1cc2ccccc2oc1=O	inconclusive [inhibitor, single point]	
NS(=O)(=O)c1ccc(NC(=O)N2c3ccccc3Sc3ccccc32)cc1		inactive: -6.03%
COc1ccc(/C=C/c2nc(S(=O)(=O)c3ccccc3)c(N(C)C)o2)cc1	active: 22.4 µM	
O=C(CN1CCN(Cc2ccc3c(c2)OCO3)CC1)Nc1ccc2c(c1)OCO2		inactive: -3.67%
Cc1ccc(NC(=O)CSc2ccc(Br)cc2)cc1S(=O)(=O)N1CCOCC1	active: 31.6 µM	
COc1ccc(OC)c(NS(=O)(=O)c2ccc(-c3coc(C)n3)cc2)c1	inconclusive [inhibitor, single point]	
CCOc1ccc(C(C)=O)cc1CN1C(=O)NC(C)(C2CC2)C1=O (stereo not given)	inconclusive [inhibitor, single point]	
C=C(c1cn(C(C)=O)c2ccccc12)c1cn(C(C)=O)c2ccccc12	inconclusive [inhibitor, single point]	
C[C@@H](NC(=O)c1coc(=O)c(Br)c1)c1ccccc1	inconclusive [inhibitor, partial curve]	

Structure (SMILES)	Potency	activity change, negative = inhibition
CC(C)N1CCCC(CNC(=O)CCc2nnc(CCCCc3ccccc3)o2)C1 (stereo not given)		inactive: -8.95%
CCOC(=O)c1nn(-c2ccc(C)cc2)cc1O		inactive: -2.61%
Cc1ccc(S(=O)(=O)Nc2ccc(C(OC(=O)c3ccccc3[N+](=O)[O-])(C(F)(F)F)C(F)(F)F)cc2)cc1	inconclusive [inhibitor, single point]	
CCc1c(C)sc(NC(=O)c2cc(C3CC3)on2)c1C#N		inactive: -3.09%
COc1ccc(-c2n[nH]c(C(F)(F)F)c2-c2cc3ccccc3o2)c(O)c1	active: 11.2 µM	
COc1ccc(C(=O)NNC(=S)NC(=O)/C=C/c2cccs2)cc1	inconclusive [inhibitor, partial curve]	
CCOC(=O)c1c(NC(=O)CSc2nnc(Cc3ccccc3)o2)sc(C(C)=O)c1C	inconclusive [inhibitor, full curve]	
CCOc1ccc(C2C([N+](=O)[O-])=C(C)N(C)C(=O)N2C)cc1OC (stereo not given)	inconclusive [inhibitor, single point]	
Cc1cc2c(cc1C)N(C(=O)CN1C(=O)c3ccccc3C1=O)C(C)(C)c1ssc(=S)c1-2	active: 8.91 µM	
Cc1ccc(C)c(S(=O)(=O)N2CCN(C(=O)CCC(=O)NCc3ccc(Cl)cc3)CC2)c1		inactive: 17.4%
COc1cc(CN2CCN(Cc3c[nH]c4ccccc34)CC2CCO)cc(OC)c1 (stereo not given)		inactive: -8.22%
O=C(CNS(=O)(=O)c1c(F)cccc1F)NC1CCCc2ccccc21 (stereo not given)		inactive: -6.27%
Cc1ccc(/C=N/NC(=O)Cc2cccn2C)s1		inactive: 0.856%
Cc1ccc(Cl)cc1Nc1nc(-c2sc(NC(=O)c3ccco3)nc2C)cs1	active: 8.91 µM	
CCOC(=O)CNC(=O)c1cccnc1Oc1ccc(Cl)cc1		inactive: 19.2%
CCOC(=O)C1CCN(Cc2nnc(-c3ccccc3C)o2)CC1		inactive: -3.09%
CCN(C[C@H]1N[C@@](CC)(C(=O)OC)[C@H]2C(=O)N(C)C(=O)[C@@H]12)C(=O)Nc1ccc(C)cc1	active: 3.16 µM	
Cc1cc(C)n(S(=O)(=O)c2ccc3ccccc3c2)n1	inconclusive [inhibitor, single point]	
Clc1ccc(-c2noc3c2-c2nc(Cc4cccc5ccccc45)sc2CC3)cc1	inconclusive [inhibitor, single point]	
COC(=O)C1=C(c2ccc(F)cc2OCc2ccccc2)C[C@@H]2CC[C@H]1N2C(=O)NCCOc1ccccc1	inconclusive [inhibitor, single point]	
CCOC(=O)c1c(NC(=O)CSc2nnnn2-c2ccc3c(c2)OCO3)sc(C)c1C	inconclusive [inhibitor, partial curve, poor fit]	
COc1cc(C(=O)NNC(=S)NC(=O)/C=C/c2ccccc2)cc(OC)c1OC	inconclusive [inhibitor, single point]	

Source: PubChem BioAssay AID651820 (National Center for Advancing Translational Sciences (NCATS), 2012)
